Laboratory results published in PubChem BioAssay AID1745853 (National Center for Advancing Translational Sciences (NCATS), 2022).
Some of the results follow. Shown are side measurements of this screen, not its main read-out; they come without a call.

Columns and labels:
Assay in all cases: Primary Screen for Target Class Profiling of Small Molecule Inhibitors of Methyltransferases
[1] = target: Glycine N-methyltransferase (Homo sapiens) (UniProt Q14749); settings: purified enzyme, MTase-Glo SAH luminescence; measured here: GNMT inhibition; at 40 µM; stronger effect = lower value
How it was run: (§1)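 Each enzyme was reacted with SAM and its substrate, with compounds tested once at 40 uM; SAH formed was read by MTase-Glo luminescence.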

[2] = target: Guanidinoacetate N-methyltransferase (Homo sapiens) (UniProt Q14353); settings: purified enzyme, MTase-Glo SAH luminescence; measured here: GAMT inhibition; at 40 µM; stronger effect = lower value
How it was run: as §1

[3] = target: Histamine N-methyltransferase (Homo sapiens) (UniProt P50135); settings: purified enzyme, MTase-Glo SAH luminescence; measured here: HNMT inhibition; at 40 µM; stronger effect = lower value
How it was run: as §1

[4] = target: Nicotinamide N-methyltransferase (Homo sapiens) (UniProt P40261); settings: purified enzyme, MTase-Glo SAH luminescence; measured here: NNMT inhibition; at 40 µM; stronger effect = lower value
How it was run: as §1

[5] = target: Phenylethanolamine N-methyltransferase (Homo sapiens) (UniProt P11086); settings: purified enzyme, MTase-Glo SAH luminescence; measured here: PNMT inhibition; at 40 µM; stronger effect = lower value
How it was run: as §1
% is set by controls: 0 for no effect and ±100 for the full control effect.

| Structure (SMILES) | activity change, negative = inhibition [1] [%] | activity change, negative = inhibition [2] [%] | activity change, negative = inhibition [3] [%] | activity change, negative = inhibition [4] [%] | activity change, negative = inhibition [5] [%] |
| --- | --- | --- | --- | --- | --- |
| NC(N)=NCCC[C@H](NC(=O)c1sccc1NS(=O)(=O)c1cccc2nsnc12)C(=O)O | 0.344 | 3.6 | 8.77 | -13.2 | 3.66 |
| CCCN1C(=O)c2cc3occc3n2CC1(C)C(=O)NC1CCCCC1 (stereo not drawn) | -0.41 | 2.8 | 1.81 | 7.82 | 0.299 |
| COc1ccc(NC(=O)Cn2nc3n(CC(C)C)c(=O)c4ccccc4n3c2=O)cc1 | -1.14 | 3.85 | 2.52 | -8.94 | -0.597 |
| O=C(c1ccccc1F)N1CCC(N2CCCOC2=O)CC1 | -1.56 | -6.24 | 2.88 | -6.21 | 0.082 |
| CCOc1ccc(NC(=O)N2CCn3c(C)ccc3C2C(C)C)cc1 (stereo not drawn) | 8.96 | 0 | -4.13 | -3.19 | 1.52 |
| CC(=O)CC1CCC(C(C)C(=O)OCC(O)CO)O1 (stereo not drawn) | 0.694 | 2.36 | 10 | -10.1 | -7.66 |
| COc1ccc(CN2C(=O)c3ccc(-c4ccco4)n3CC2(C)C(=O)NC2CCCCC2)cc1 (stereo not drawn) | -12.9 | -7.69 | 1.53 | -14 | -9.38 |
| Cc1ccc(N2C(=O)c3nc4ccccc4n3CC2(C)C(=O)NC2CCCCC2C)cc1 (stereo not drawn) | 4.1 | 0 | 8.04 | 10 | 1.81 |
| C=CCn1c(=O)c2ccc(C(=O)NC(C)C)cc2n2c(=O)n(CC(=O)Nc3cccc(F)c3)nc12 | 6.41 | 0 | 8.75 | 1.37 | 2.64 |
| O=C(c1ccc2ncccc2c1)N1CCC(c2nc(CCOCC3CCOCC3)no2)C1 (stereo not drawn) | 2.31 | 0.861 | 2.25 | -3.98 | 0.221 |
| O=C1c2ccccc2OCC2(CCN([S+](=O)([O-])c3ccccc3)C2)N1[S+](=O)([O-])c1ccccc1 (stereo not drawn) | -7.87 | -10.4 | -6.5 | -23.5 | -13.3 |
| O=C(C[C@@H]1C(C(=O)O)=CO[C@@H](O[C@@H]2O[C@H](CO)[C@@H](O)[C@H](O)[C@H]2O)/C1=C\CO)OCCc1ccc(O)c(O)c1 | 6.25 | 5.49 | 13 | -8.49 | 7.4 |
| CCCn1c(=O)c2ccc(Cl)cc2n2c(SCC(=O)Nc3ccccc3Cl)nnc12 | -1.28 | 2.37 | -1.22 | 2.6 | -1.66 |
| CC(=O)Nc1c2n(c3ccc(F)cc13)CC(C)(C(=O)NC1CCCCC1)N(C1CCCCC1)C2=O (stereo not drawn) | -3.26 | -0.758 | -1.87 | -7.25 | -1.83 |
| CCN1C(=O)c2cc(C(=O)NCc3ccccc3)nn2CC1(C)C(=O)NC1CCCC1 (stereo not drawn) | -1.83 | -0.908 | -0.977 | -2.58 | -4.64 |
| Cc1ccccc1CNC(=O)C1(C)Cc2ccccc2C(=O)N1Cc1cccc(Cl)c1 (stereo not drawn) | -0.453 | 6.3 | -6.21 | -10.4 | -0.385 |
| CCc1cccc(NC(=O)c2ncn3c2C(=O)N(C2CC2)C(C)(C(=O)NCc2ccc(F)cc2)C3)c1 (stereo not drawn) | -1.67 | 0 | 2.09 | 1.6 | 2.13 |
| O=C(O)CC1(CC(=O)N[C@H]2C[C@@](O)(C(=O)N[C@H]3CCCNC3=O)C[C@@H](O)[C@@H]2O)CCCC1 | -0.835 | 1.4 | 1.86 | 0.03 | 1.36 |
| NC(=O)C1CCN(C(=O)CCc2nnc3n(Cc4ccc(F)cc4)c(=O)c4ccccc4n23)CC1 | -4.12 | 0.844 | -6.31 | 8.14 | -8.3 |
| Cc1cc(Cn2cnc3c2CC(C(=O)O)N(C(=O)C(c2ccccc2)c2ccccc2)C3)ccc1N(C)C (stereo not drawn) | -0.13 | -7.51 | -2.38 | -19.3 | -6.08 |

| Structure (SMILES) | activity change, negative = inhibition [1] [%] | activity change, negative = inhibition [2] [%] | activity change, negative = inhibition [3] [%] | activity change, negative = inhibition [4] [%] | activity change, negative = inhibition [5] [%] |
| --- | --- | --- | --- | --- | --- |
| Cn1c(=O)n(C)c2cc(S(=O)(=O)NCCN3CCOCC3)ccc21 | 0.92 | 5.71 | -4.78 | -4.32 | -5.66 |
| CCOC(=O)c1cc2n(n1)CC(C)(C(=O)NCc1ccccc1OC)N(c1ccc(C)c(C)c1)C2=O (stereo not drawn) | 4.87 | 1.23 | 12 | 1.32 | 6.09 |
| CCc1ccc(S(=O)(=O)c2nnn3c2nc(N)c2cc(Cl)ccc23)cc1 | -13.4 | 0.089 | -3.33 | -4.03 | -0.867 |
| Cc1ccc(N2C(=O)c3cc(C(C)(C)C)nn3CC2(C)C(=O)NCc2ccccc2)cc1 (stereo not drawn) | 5.03 | 3.81 | 3.69 | -0.249 | 0.932 |
| CCC(C)NC(=O)c1ccc2c(=O)n(CC(C)C)c3nn(CC(=O)N(C)c4ccccc4)c(=O)n3c2c1 (stereo not drawn) | 2.44 | 0 | 11.5 | -0.684 | 8.91 |
| CC(C)Cn1c(=O)c2ccccc2n2c(=O)n(CC(=O)c3ccc(Br)cc3)nc12 | 9.94 | 2.22 | 13 | 10.4 | 9.49 |
| CCc1ccc(C2c3cccn3-c3sc4c(c3CN2C(=O)Nc2ccc(OC)cc2)CCCC4)cc1 (stereo not drawn) | -1.75 | 0 | 10.5 | 3.83 | 5.96 |
| CC(C)CC(=O)O[C@@H]1OC=C(CO[C@@H]2O[C@H](CO)[C@@H](O)[C@H](O)[C@H]2O)[C@H]2[C@@H]3O[C@H]3[C@@](O)(CO)[C@@H]12 | 5 | 9.12 | 7.18 | -2.27 | 7 |
| O=C1COc2ccc(N3CCOCC3)nc2CN1Cc1ccc(F)cc1 | -5.56 | -0.26 | -3.31 | -5.25 | -3.03 |
| Cc1onc(-c2c(Cl)cccc2Cl)c1CC(=O)NCc1ccc(OCC(F)(F)F)nc1 | -2.53 | -2.18 | 8.36 | -17.8 | -2.63 |
| COc1ccccc1C(=O)N1CCC2(CC1)NC(=O)c1ccccc1O2 | -7.09 | -9.02 | -2.44 | -16.8 | -20.9 |
| COc1ccc(N2CCN(C(=O)c3ccc4c(=O)nc5c(-c6ccccc6F)n[nH]n5c4c3)CC2)cc1 | -14.8 | 0.053 | -0.764 | -5.29 | -3.57 |
| O=C(c1cccc(OC(F)F)c1)N1CC[C@H](N2CCOCC2)[C@H](CCCO)C1 | -4.28 | -11.3 | -1.53 | -13.3 | -5.96 |
| C=C(CCO)C(=O)OCC1OCC(OC(=O)C(=C)CCO[C@@H]2O[C@H](CO)[C@@H](O)[C@H](O)[C@H]2O)C(O)C1O (stereo partly drawn) | 9.64 | 7.91 | 10.4 | -1.24 | 5.93 |
| Cc1ccc(CNC(=O)C2(C)Cn3nc(C(=O)NCc4cccs4)cc3C(=O)N2C)cc1 (stereo not drawn) | 4.9 | 0 | 1.28 | 2.78 | 3.94 |
| CC(C)N1C(=O)C2(CCCCC2)C1C(=O)NCc1nc2ccccc2n1C (stereo not drawn) | -1.27 | -0.868 | 1.21 | -5.09 | -0.418 |
| Cc1ccccc1C(=O)N1CCC(N2CCCNC2=O)CC1 | -4.68 | -9.39 | -1.1 | -16.4 | -12.5 |
| COc1ccc(N2Cc3c(NCCc4ccccc4F)ncnc3N(C)CC2=O)cc1 | -10.3 | -11 | -6.62 | -19.5 | -6.6 |
| Cc1cc2c(cc1S(=O)(=O)Nc1ccc(F)c(Cl)c1)n(C)c(=O)n2C | 10.4 | 0 | 5.01 | -6.15 | 3.1 |
| CCOc1ccc(NC(=O)Cn2nc3n(c2=O)CCN(Cc2ccccc2C)C3=O)cc1 | -4.81 | 0.055 | -0.664 | -3.81 | -0.735 |

| Structure (SMILES) | activity change, negative = inhibition [1] [%] | activity change, negative = inhibition [2] [%] | activity change, negative = inhibition [3] [%] | activity change, negative = inhibition [4] [%] | activity change, negative = inhibition [5] [%] |
| --- | --- | --- | --- | --- | --- |
| CC1NC(=O)C(Cc2c[nH]c3ccccc23)NC1=O (stereo not drawn) | -0.037 | 1.33 | 9.38 | -12.3 | -5.62 |
| c1ccc(C(NCCNC(c2ccccc2)c2ccccc2)c2ccccc2)cc1 | -4.94 | 5.59 | -1.01 | -3.68 | 5.51 |
| CCCn1c(=O)c2cc(Cl)ccc2n2c(SCc3cccc(OC)c3)nnc12 | -12.9 | 1.6 | 1.44 | -12.8 | -1.43 |
| CCN(CC)C(=O)[C@@H]1CCC[C@@H](NC2CCOCC2)CN(C)C(=O)C1 | -6.09 | -6.74 | -2.37 | -13.7 | -8.23 |
| CC(=O)O[C@H]1C[C@@]2(C)[C@@H](CC[C@H]3[C@@]4(C)C=CC(=O)[C@@H](C)[C@@H]4[C@H](O)C(=O)[C@@]32C)/C1=C(/CCC=C(C)C)C(=O)O | 0 | -5.72 | 8.45 | -21.1 | -9.5 |
| CNC(=O)c1noc(CN2CCCC(CCc3ccccc3F)C2)n1 (stereo not drawn) | -8.19 | -7.29 | -6.44 | -17.4 | 5.23 |
| COc1ccc(N2C(=O)c3ccc(-c4ccco4)n3CC2(C)C(=O)NCc2ccccc2)cc1OC (stereo not drawn) | -38 | 2.04 | 5.18 | -1.32 | -2.93 |
| CN(C)C(=O)CO[C@H]1COCCN(Cc2ccccn2)C1 | -5.07 | -1.22 | -5.15 | -4.12 | 11.8 |
| O=C(N[C@@H]1CCCc2c1cnn2-c1ccc(F)cc1F)c1ccccn1 | 1.83 | 7.09 | 4.51 | -13.5 | -4.68 |
| C[C@@H]1C(=O)OC2[C@H](O)[C@]34[C@H]5C[C@@H](C(C)(C)C)[C@]36[C@@H](OC(=O)[C@@H]6O)O[C@@]4(C(=O)O5)[C@]21O (stereo partly drawn) | – | -9.33 | – | -16.8 | -4.65 |
| COc1cc2c(cc1OC)[C@@H]1[C@H](O)[C@@H](OC)C=C3CCN(C2)[C@H]31 | 1.21 | -3.59 | 9.9 | -20.8 | -0.685 |
| Cn1c2c(c3ccccc31)C(C(=O)NCc1ccccc1)N(Cc1ccco1)C(=O)CS2 (stereo not drawn) | 2.66 | 0 | 2.98 | -1.56 | 0.533 |
| CCOc1ncccc1C(=O)N[C@H](c1cncc(OC)c1)C1CC(O)C1 (stereo partly drawn) | -3.88 | -1.49 | -0.624 | -6.86 | 12.5 |
| Cc1nnc2n1C(C)CN(C(=O)Cn1nnc(-c3ccc(F)cc3)n1)C2 (stereo not drawn) | -5.65 | -13.5 | -2.51 | -10.3 | -4.89 |
| COc1c(OCCCN2CCOCC2)ccc2c3n(c(=NC(=O)c4cnc(N)nc4)nc12)CCN3 | -0.878 | -1.96 | -0.163 | -11.7 | -8.14 |
| COc1ccc(N2C(=O)c3cc(-c4cccs4)nn3CC2(C)C(=O)NC2CCCCC2)cc1 (stereo not drawn) | -4.73 | 3.72 | 1.23 | 5.34 | -3.05 |
| COc1ccc(-c2cc3n(n2)CC(C)(C(=O)NC2CCCCC2)N(CCC(C)C)C3=O)cc1 (stereo not drawn) | -0.167 | 0 | 3.2 | -3.57 | -4.5 |
| O=C(CCc1nnc2n(CCc3ccccc3)c(=O)c3ccccc3n12)NCCCN1CCOCC1 | -3.06 | -13.9 | 5.51 | 14.2 | 2.56 |
